From the supplement of paper PMC9446081
In all, about 39,000 compounds went through this assay and about 220 (0.56%) showed activity. The list shows a part of the results.
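Further: static incubation at 37 °C against the wild-type strain, values averaged over two biological replicates.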

These compounds were tested on Escherichia coli K-12 BW25113 (assay: relative growth (OD600 normalised to plate interquartile mean) (fraction); higher = less growth inhibition, active = 0.2 or less). Conditions: 50 µM; LB; incubation time: overnight (16-24 h).
With `CC(C(=O)O)c1ccc2c(c1)CC(=O)c1ccccc1S2` (stereo not drawn) the relative growth was inactive: 1.1.
`COc1ccc(S(=O)(=O)Nc2cccc3c2O[C@H](CN(C)C(=O)Nc2cccc4ccccc24)[C@@H](C)CN([C@@H](C)CO)C3=O)cc1` was tested, and the relative growth was inactive: 1.
For `C[C@H](CO)N1C[C@H](C)[C@@H](CN(C)CC2CC2)OCCCC[C@H](C)Oc2ccc(NC(=O)c3ccccc3)cc2C1=O`, the relative growth was inactive: 1.02.
In the case of `CN([C@@H](c1ccccc1)c1ccccn1)S(=O)(=O)c1cn(C)c(=O)n(C)c1=O`, the relative growth is reported as inactive: 0.994.
In the case of `COc1ccc([Si](C)(C)[C@@H]2[C@@H](CCn3cc([C@H](O)c4ccccc4)nn3)O[C@]3(C(=O)N(Cc4ccc(N5CCC5=O)cc4)c4ccccc43)[C@H]2C)cc1`, the relative growth is reported as inactive: 1.
`COc1cccc(S(=O)(=O)Nc2ccc3c(c2)[C@H]2C[C@@H](CC(=O)N4CCCCC4)O[C@H](CO)[C@H]2O3)c1` was tested, and the relative growth was inactive: 1.01.
`C[C@H](CO)N1C[C@H](C)[C@@H](CN(C)CC2CCCCC2)Oc2c(NC(=O)Nc3ccccc3)cccc2C1=O` was tested, and the relative growth was inactive: 0.949.
`C[C@H]1CN([C@@H](C)CO)C(=O)c2cc(NC(=O)CCN3CCOCC3)ccc2O[C@H]1CN(C)Cc1ccncc1` was tested, and the relative growth was inactive: 1.
In the case of `C[C@H](CO)N1C[C@H](C)[C@@H](CN(C)CC2CCCCC2)Oc2ccc(NC(=O)Nc3cccc4ccccc34)cc2CC1=O`, the relative growth is reported as inactive: 0.939.
`COc1ccc(NC(=O)Nc2cccc3c2O[C@@H](CN(C)S(C)(=O)=O)[C@H](C)CN([C@@H](C)CO)C3=O)cc1` was tested, and the relative growth was inactive: 1.01.
In the case of `COc1ccc(NC(=O)N(C)C[C@@H]2Oc3c(NS(=O)(=O)c4c(C)noc4C)cccc3C(=O)N([C@@H](C)CO)C[C@@H]2C)cc1`, the relative growth is reported as inactive: 0.845.
For `COc1ccc(S(=O)(=O)N(C)C[C@H]2Oc3ccc(NS(=O)(=O)c4ccc(F)cc4)cc3C(=O)N([C@H](C)CO)C[C@@H]2C)cc1`, the relative growth was inactive: 1.01.
With `C[C@@H]1CN([C@@H](C)CO)C(=O)c2c(c3ccccc3n2C)-c2ccccc2CO[C@@H]1CN(C)C(=O)[C@H](C)c1ccccc1` the relative growth was inactive: 1.
`C[C@H](CO)N1C[C@H](C)[C@H](CN(C)CC2CC2)OCCCC[C@H](C)Oc2ccc(NC(=O)CCC(F)(F)F)cc2C1=O` was tested, and the relative growth was inactive: 0.985.
With `COc1cccc(S(=O)(=O)N[C@@H]2CC[C@H](CCn3cc(-c4ccccc4OC)nn3)O[C@H]2CO)c1` the relative growth was inactive: 1.03.
With `C[C@H]1CCCCO[C@@H](CN(C)C(=O)Nc2cccc3ccccc23)[C@@H](C)CN([C@@H](C)CO)C(=O)c2cc(NS(=O)(=O)c3cn(C)cn3)ccc2O1` the relative growth was inactive: 0.954.
In the case of `C[C@@H]1CCCCO[C@@H](CN(C)Cc2ccc(C(F)(F)F)cc2)[C@H](C)CN([C@@H](C)CO)C(=O)c2cc(NS(=O)(=O)c3ccc(F)cc3)ccc2O1`, the relative growth is reported as inactive: 0.991.
In the case of `O=C(C[C@@H]1CC[C@@H]2[C@H](COC[C@@H](O)CN2Cc2cc(F)ccc2F)O1)N[C@H]1CCN(Cc2ccccc2)C1`, the relative growth is reported as inactive: 1.02.
With `C[C@@H]1CN([C@H](C)CO)C(=O)c2cc(NC(=O)Nc3cccc4ccccc34)ccc2O[C@@H](C)CCCCO[C@H]1CN(C)Cc1ccccc1` the relative growth was inactive: 1.
`Cc1noc(C)c1NC(=O)Nc1ccc2c(c1)C(=O)N([C@@H](C)CO)C[C@@H](C)[C@@H](CN(C)C(=O)Nc1ccccc1)OCCCC[C@H](C)O2` was tested, and the relative growth was inactive: 1.01.
With `Cc1ccc(S(=O)(=O)N(C)C[C@H]2Oc3c(NS(=O)(=O)c4ccccc4)cccc3C(=O)N([C@@H](C)CO)C[C@H]2C)cc1` the relative growth was inactive: 1.04.
For `Cc1nc(-c2ccc(OCC(C)C)c(C#N)c2)sc1C(=O)O`, the relative growth was inactive: 0.831.
`C[C@@H]1CN([C@H](C)CO)C(=O)c2cc(NC(=O)Nc3cccc4ccccc34)ccc2O[C@H]1CN(C)Cc1ccc2c(c1)OCO2` was tested, and the relative growth was inactive: 1.
In the case of `C[C@@H]1CN([C@H](C)CO)C(=O)c2cc(NS(C)(=O)=O)ccc2O[C@@H](C)CCCCO[C@H]1CN(C)Cc1ccncc1`, the relative growth is reported as inactive: 0.999.
`O=C(CN1CCOCC1)N[C@@H]1CC[C@@H](CCNC(=O)C2CCCCC2)O[C@H]1CO` was tested, and the relative growth was inactive: 1.
In the case of `C[C@@H]1CN([C@H](C)CO)C(=O)c2cc(NC(=O)CCCN(C)C)ccc2O[C@@H]1CN(C)Cc1ccc2c(c1)OCO2`, the relative growth is reported as inactive: 0.988.
`C[C@H]1CN([C@@H](C)CO)C(=O)c2cc(NC(=O)c3ccncc3)ccc2O[C@H]1CN(C)S(=O)(=O)c1ccc(F)cc1` was tested, and the relative growth was inactive: 1.01.
In the case of `C[C@@H]1CCC[C@H](C)N1c1nn(C)c(=O)[nH]1`, the relative growth is reported as inactive: 0.994.
`C[C@@H]1CCCCO[C@H](CN(C)C(=O)c2ccccc2)[C@H](C)CN([C@@H](C)CO)C(=O)c2cc(NC(=O)NC3CCCCC3)ccc2O1` was tested, and the relative growth was inactive: 0.981.
For `COc1ccc(S(=O)(=O)Nc2cccc3c2O[C@H](CN(C)C(=O)Nc2c(C)noc2C)[C@H](C)CN([C@@H](C)CO)C3=O)cc1`, the relative growth was inactive: 0.982.
For `C[C@H](CO)N1C[C@H](C)[C@H](CN(C)C(=O)c2ccncc2)OCCCC[C@H](C)Oc2ccc(NC(=O)CCCCCC(=O)Nc3ccccc3N)cc2C1=O`, the relative growth was inactive: 1.01.
With `COCC(=O)Nc1ccc2c(c1)C(=O)N(C)[C@H]1CC[C@H](CC(=O)NCc3ccc(OC)cc3)O[C@H]1CO2` the relative growth was inactive: 0.998.
For `COC(=O)c1c(CC[C@@H](CO)NC(=O)N[C@H](Cn2cc(-c3ccccc3C)nn2)C(C)C)oc(C(C)=O)c1C(=O)OC`, the relative growth was inactive: 1.02.
In the case of `C[C@H](CO)N1C[C@H](C)[C@@H](CN(C)S(=O)(=O)c2ccc3ccccc3c2)OCc2cn(nn2)CCCC1=O`, the relative growth is reported as inactive: 0.969.
In the case of `CNC[C@@H]1OCCCC[C@H](C)Oc2ccc(NC(=O)c3ccncc3)cc2C(=O)N([C@@H](C)CO)C[C@@H]1C`, the relative growth is reported as inactive: 1.
`Cc1nn(C)c(Cl)c1S(=O)(=O)NC(=O)[C@@]1(C)CCN1C(=O)c1ccccc1CCc1ccccc1` was tested, and the relative growth was inactive: 0.979.
In the case of `COc1ccccc1NC(=O)C1=C(C)N=C(SCC(=O)Nc2ccccc2[N+](=O)[O-])C(C#N)[C@@H]1c1ccccc1F` (stereo partly drawn), the relative growth is reported as inactive: 1.04.
For `C=CC[C@H](CC(=O)N(CCO)Cc1ccccc1)C(=O)N1CCC[C@@H]1COC(=O)[C@H](CC=C)NC(=O)OCC1c2ccccc2-c2ccccc21`, the relative growth was inactive: 1.
In the case of `C[C@H](CO)N1C[C@H](C)[C@H](CN(C)Cc2ccc(Oc3ccccc3)cc2)Oc2ccc(NS(=O)(=O)c3ccc(Cl)cc3)cc2C1=O`, the relative growth is reported as inactive: 1.01.
For `C[C@@H]1CCCCO[C@@H](CN(C)C(=O)C2CCCCC2)[C@@H](C)CN([C@@H](C)CO)C(=O)c2cc(NS(=O)(=O)c3cccs3)ccc2O1`, the relative growth was inactive: 1.01.
`CCN(CC)CCOC(=O)C(c1ccccc1)c1ccccc1.Cl` was tested, and the relative growth was inactive: 1.17.
For `CC(C)NC(=O)Nc1ccc2c(c1)C(=O)N([C@H](C)CO)C[C@@H](C)[C@H](CN(C)C(=O)C1CCCCC1)OCCCC[C@@H](C)O2`, the relative growth was inactive: 1.02.
For `Cc1noc(C)c1NC(=O)N(C)C[C@@H]1Oc2ccc(NC(=O)Cn3cnnn3)cc2CC(=O)N([C@@H](C)CO)C[C@@H]1C`, the relative growth was inactive: 1.01.
`C[C@@H]1CN([C@@H](C)CO)C(=O)Cc2cc(NC(=O)Nc3cccc4ccccc34)ccc2O[C@H]1CN(C)C(=O)Nc1ccc(F)cc1` was tested, and the relative growth was inactive: 0.996.
With `Cc1ccc(S(=O)(=O)N(C)C[C@@H]2Oc3c(NC(=O)C4CC4)cccc3C(=O)N([C@@H](C)CO)C[C@@H]2C)cc1` the relative growth was inactive: 1.01.
With `CC(Oc1c(Cl)cccc1Cl)C1=NCCN1.Cl` (stereo not drawn) the relative growth was inactive: 1.02.
For `CN(C)C(=O)COC[C@]12COC[C@H]1CN(S(C)(=O)=O)C2`, the relative growth was inactive: 0.987.
`C[C@H]1CN([C@@H](C)CO)C(=O)CCCn2nncc2CO[C@H]1CN(C)C(=O)CCCN(C)C` was tested, and the relative growth was inactive: 0.988.
With `C[C@@H]1CN([C@H](C)CO)C(=O)c2cccc(NC(=O)Nc3ccccc3)c2O[C@@H]1CN(C)Cc1ccc(-c2ccccc2)cc1` the relative growth was inactive: 0.993.
`Cc1noc(C)c1S(=O)(=O)Nc1ccc2c(c1)CC(=O)N([C@H](C)CO)C[C@@H](C)[C@@H](CN(C)S(=O)(=O)c1cn(C)cn1)O2` was tested, and the relative growth was inactive: 1.01.
With `Cc1ccc(S(=O)(=O)N(C)C[C@@H]2Oc3ncc(-c4ccncc4)cc3C(=O)N([C@@H](C)CO)C[C@H]2C)cc1` the relative growth was inactive: 1.01.
With `Cc1noc(C)c1S(=O)(=O)Nc1ccc2c(c1)CC(=O)N([C@@H](C)CO)C[C@H](C)[C@H](CN(C)S(=O)(=O)c1c(C)noc1C)O2` the relative growth was inactive: 1.02.
In the case of `C=CCNC(=O)[C@@H]1[C@H]2C(=O)O[C@H](c3ccccc3)[C@H](c3ccccc3)N2[C@H](c2ccc(OCCO)cc2)[C@@]12C(=O)Nc1ccc(C#Cc3ccc(OC)cc3)cc12`, the relative growth is reported as inactive: 1.06.
With `O=C(CCCCCCC(=O)Nc1ccc([C@H]2O[C@@H](CSc3nc4ccccc4o3)C[C@H](c3ccccc3)O2)cc1)NO` the relative growth was inactive: 0.972.
In the case of `C[C@H]1CCCCO[C@H](CN(C)Cc2ccc(Cl)c(Cl)c2)[C@@H](C)CN([C@@H](C)CO)C(=O)c2cc(NC(=O)CCC(F)(F)F)ccc2O1`, the relative growth is reported as inactive: 1.06.
With `OC[C@@H]1CC[C@@H]2O[C@H](CCc3ccc(C#CCc4ccccc4)cc3)[C@H](n3cc(-c4ccccc4)nn3)C[C@@H]2O1` the relative growth was inactive: 1.03.
`C[C@@H]1CCCCO[C@@H](CN(C)S(C)(=O)=O)[C@@H](C)CN([C@H](C)CO)C(=O)c2cc(NS(=O)(=O)c3cn(C)cn3)ccc2O1` was tested, and the relative growth was inactive: 1.01.
For `C[C@@H]1CN([C@H](C)CO)C(=O)c2cc(NC(=O)Nc3ccccc3)ccc2O[C@@H](C)CCCCO[C@@H]1CN(C)C(=O)Cc1ccccc1`, the relative growth was inactive: 1.
